Laboratory results taken from paper PMC4336329 (PLoS ONE, 2015).
The whole screen tested about 310,000 compounds, of which about 2,200 (0.71%) showed an effect of 50% or more. Effects have a minus sign here. The list shows a part of the results.

target: human ether-à-go-go-related gene (hERG) potassium channel (human, UniProt Q12809); experiment: primary screen, population patch clamp on CHO cells stably expressing hERG
Sequence (Q12809 whole entry, looked up): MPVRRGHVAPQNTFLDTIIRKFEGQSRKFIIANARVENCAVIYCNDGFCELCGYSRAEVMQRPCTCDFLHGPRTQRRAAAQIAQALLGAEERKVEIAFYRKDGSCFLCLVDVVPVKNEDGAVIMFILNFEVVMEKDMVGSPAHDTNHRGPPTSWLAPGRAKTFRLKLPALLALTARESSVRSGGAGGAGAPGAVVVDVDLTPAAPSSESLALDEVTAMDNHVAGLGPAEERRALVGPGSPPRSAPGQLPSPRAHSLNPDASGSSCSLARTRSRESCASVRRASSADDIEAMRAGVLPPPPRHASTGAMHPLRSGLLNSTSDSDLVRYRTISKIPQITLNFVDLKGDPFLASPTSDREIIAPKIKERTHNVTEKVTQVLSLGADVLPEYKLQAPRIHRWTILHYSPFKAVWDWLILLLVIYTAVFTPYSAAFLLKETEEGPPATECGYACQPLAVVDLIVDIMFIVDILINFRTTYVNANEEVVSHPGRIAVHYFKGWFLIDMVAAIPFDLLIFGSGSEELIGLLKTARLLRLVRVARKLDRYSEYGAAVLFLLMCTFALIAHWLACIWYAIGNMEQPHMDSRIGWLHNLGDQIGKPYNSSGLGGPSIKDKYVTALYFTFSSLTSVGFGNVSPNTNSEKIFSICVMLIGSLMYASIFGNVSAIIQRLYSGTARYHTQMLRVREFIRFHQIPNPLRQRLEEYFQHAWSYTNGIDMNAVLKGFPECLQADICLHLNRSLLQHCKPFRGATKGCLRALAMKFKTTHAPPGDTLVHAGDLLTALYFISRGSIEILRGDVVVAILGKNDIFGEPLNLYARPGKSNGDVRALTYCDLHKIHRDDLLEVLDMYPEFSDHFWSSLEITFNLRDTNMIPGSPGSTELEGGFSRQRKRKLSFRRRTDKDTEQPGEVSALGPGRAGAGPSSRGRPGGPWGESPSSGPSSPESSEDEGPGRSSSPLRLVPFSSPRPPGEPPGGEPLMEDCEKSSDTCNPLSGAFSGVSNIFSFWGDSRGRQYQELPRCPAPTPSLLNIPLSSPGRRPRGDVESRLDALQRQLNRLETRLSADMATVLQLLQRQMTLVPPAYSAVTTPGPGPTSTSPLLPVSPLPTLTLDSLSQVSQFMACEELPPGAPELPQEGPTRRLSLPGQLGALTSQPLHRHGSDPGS

Compound	hERG current change (%, negative = inhibition) at 1uM [%]
COc1ccc(NC(=O)c2sc3nc(C)nc(N4CCN(c5ccccn5)CC4)c3c2C)cc1Cl	8.92
O=c1cc(CSc2nnc(COc3ccccc3)o2)c2ccccc2[nH]1	10.3
O=S(=O)(c1cccc(-c2nnc(-c3ccc(Br)cc3)o2)c1)N1CCCCCC1	-12.8
Cc1ccc(S(=O)(=O)NC(CC(=O)O)c2ccccc2)c(C)c1 (stereo not drawn)	11
CCSc1nnc2ccc(-c3ccc(C)cc3)nn12	14
Cc1ccc(CNC(=O)CCS(=O)(=O)c2ccc3c(c2)NC(=O)CO3)cc1	10.9
C/C(=N\NC(=O)C1CC1(c1ccccc1)c1ccccc1)c1cccc([N+](=O)[O-])c1 (stereo not drawn)	-12.6
Cc1c(Cl)cccc1NC(=O)Cn1nc(C)n2cccc2c1=O	10.4
O=C(CN1C(=O)COc2ccc(S(=O)(=O)N3CCOCC3)cc21)NCc1ccco1	8.81
C=CCc1cccc(CNc2nc3ccccc3n2CCN2CCOCC2)c1O	2.18
Cn1c(Cl)cnc1C(O)(c1ccccc1)c1ccccc1	15
CCCCOC(=O)Cn1c(=N)n(CCN(CC)CC)c2ccccc21	-18.6
O=C(O)CNC(=O)c1ccc(N2CCOCC2)cc1[N+](=O)[O-]	8.02
O=C(Nc1ccc2nc3ccccc3nc2c1)c1ccccc1	12.9
COc1ccc(S(=O)(=O)n2nc(-n3c(C)ccc3C)c3c(F)cccc32)cc1OC	13.4
CCc1nc(Nc2ccc(NC(C)=O)cc2)c2oc3ccccc3c2n1.Cl	19.7
CC(NC(N)=O)C(=O)NCC(=O)OCc1ccccc1 (stereo not drawn)	9.31
CCOC(=O)c1cnn(-c2ccccn2)c1N	-6.09
CNS(=O)(=O)c1cccc(C(=O)OCc2cc(C(C)=O)ccc2OC)c1	10.4
CC(=O)[C@@]1(O)CC[C@H]2[C@@H]3C[C@H](C)C4=CC(=O)CC[C@]4(C)[C@H]3CC[C@@]21C	9.7
O=C(Cn1ncc2c3ccccc3n(Cc3ccccc3F)c2c1=O)NCCN1CCOCC1	-21.4
COCCn1c(SCC(N)=O)nc2c(c1=O)SC(C)C2 (stereo not drawn)	7.72
N/C(=N\OC(=O)/C=C/c1ccccc1Cl)c1ccccn1	5.28
COC(=O)Cn1cc(C(=O)c2ccco2)c2ccccc21	4.43
